# Assay results: the supplement of paper PMC9446081
# Among all 39,000 compounds or so, about 220 (0.56%) showed activity. The list shows a part of the results.
# Test system: Escherichia coli K-12 BW25113
# Experiment: relative growth (OD600 normalised to plate interquartile mean) (fraction); higher = less growth inhibition, active = 0.2 or less
# Details: 50 µM; LB; incubation time: overnight (16-24 h)
# 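Note: static incubation at 37 °C against the wild-type strain, values averaged over two biological replicates.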
row,SMILES,relative growth
1,C[C@@H]1CN([C@H](C)CO)S(=O)(=O)c2ccc(Br)cc2O[C@H]1CN(C)C(=O)C1CCCCC1,inactive: 0.976
2,C[C@H](CO)N1C[C@H](C)[C@@H](CN(C)C(=O)Nc2cccc3ccccc23)OCc2cnnn2CCCC1=O,inactive: 0.982
3,C[C@H]1CN([C@@H](C)CO)S(=O)(=O)c2ccc(C#Cc3ccncc3)cc2O[C@H]1CN(C)C(=O)c1ccncc1,inactive: 0.961
4,Cc1noc(C)c1S(=O)(=O)Nc1ccc2c(c1)CC(=O)N([C@@H](C)CO)C[C@@H](C)[C@H](CN(C)CC1CC1)O2,inactive: 1
5,Cc1cc(C(=O)Nc2cccc3c2O[C@@H](CN(C)S(=O)(=O)c2c(C)noc2C)[C@@H](C)CN([C@@H](C)CO)C3=O)n(C)n1,inactive: 0.982
6,O=C(C[C@@H]1CC[C@@H]2[C@H](COC[C@@H](O)CN2S(=O)(=O)c2ccccc2)O1)NCc1ccncn1,inactive: 0.995
7,COc1ccc(NC(=O)N(C)C[C@@H]2Oc3c(NC(=O)CCCCCC(=O)Nc4ccccc4N)cccc3C(=O)N([C@H](C)CO)C[C@H]2C)cc1,inactive: 1.01
8,COc1ccc(CN(C)C[C@H]2OCCCC[C@@H](C)Oc3ccc(NS(=O)(=O)c4ccc(F)cc4)cc3C(=O)N([C@H](C)CO)C[C@H]2C)cc1,inactive: 1.01
9,C[C@@H]1CCCCO[C@H](CN(C)S(=O)(=O)c2cn(C)cn2)[C@H](C)CN([C@@H](C)CO)C(=O)c2cc(NC(=O)Nc3ccc(C(F)(F)F)cc3)ccc2O1,inactive: 1.01
10,COCC#Cc1cnc2c(c1)C(=O)N([C@@H](C)CO)C[C@H](C)[C@@H](CN(C)C(=O)c1cnccn1)O2,inactive: 1.04
11,Cc1noc(C)c1NC(=O)N(C)C[C@H]1Oc2c(NS(=O)(=O)c3c(C)noc3C)cccc2C(=O)N([C@H](C)CO)C[C@H]1C,inactive: 0.978
12,COc1ccc(NC(=O)Nc2ccc3c(c2)C(=O)N([C@H](C)CO)C[C@H](C)[C@@H](CN(C)Cc2ccc(Cl)c(Cl)c2)OCCCC[C@H](C)O3)cc1,inactive: 1.01
13,CN1C(=O)c2cc(NC(=O)c3cscn3)ccc2OC[C@H]2O[C@H](CC(=O)N3CCOCC3)CC[C@@H]21,inactive: 0.999
14,Cc1ccc(S(=O)(=O)Nc2ccc3c(c2)C(=O)N([C@@H](C)CO)C[C@H](C)[C@H](CN(C)CC2CCCCC2)OCCCC[C@@H](C)O3)cc1,inactive: 0.96
15,CO[C@@H]1CN(C)C(=O)c2ccc(NS(=O)(=O)CC(F)(F)F)cc2OC[C@H](C)N(C(=O)NC(C)C)C[C@H]1C,inactive: 0.992
16,Nc1ncnc2c1ncn2[C@H]1O[C@@H](CO)[C@H](O)[C@@H]1S,inactive: 0.999
17,Cc1noc(C)c1NC(=O)N(C)C[C@@H]1Oc2ccc(NC(=O)CCCN(C)C)cc2C(=O)N([C@@H](C)CO)C[C@H]1C,inactive: 1.03
18,O=C(C[C@H]1C=C[C@@H](NC(=O)Cc2ccccn2)[C@@H](CO)O1)NCCc1ccncc1,inactive: 0.952
19,O=C(C[C@H]1CC[C@H]2[C@@H](COC[C@H](O)CN2S(=O)(=O)c2cccc(Cl)c2)O1)NCc1ccc2c(c1)OCO2,inactive: 0.997

row,SMILES,relative growth
1,C[C@H](CO)N1C[C@H](C)[C@@H](CN(C)Cc2ccc(-c3ccccc3)cc2)Oc2ccc(NC(=O)Nc3cccc4ccccc34)cc2C1=O,inactive: 0.988
2,COc1cccc(-c2ccc3c(c2)O[C@@H](CN(C)C(=O)C2CC2)[C@@H](C)CN([C@H](C)CO)S3(=O)=O)c1,inactive: 0.989
3,C[C@H]1CN([C@@H](C)CO)S(=O)(=O)c2ccc(-c3cccc(C#N)c3)cc2O[C@H]1CN(C)C(=O)c1ccncc1,inactive: 1
4,C[C@H](CO)N1C[C@H](C)[C@@H](CN(C)C(=O)Nc2ccc(C(F)(F)F)cc2)Oc2ccc(NC(=O)Nc3ccc4c(c3)OCO4)cc2CC1=O,inactive: 1.04
5,CN(CC(=O)NC1CCCC1)S(=O)(=O)c1ccc2c(c1)c(=O)n(C)c(=O)n2C,inactive: 1.01
6,N=C(N)c1ccc(C(N)=O)cc1,inactive: 0.998
7,O=C(NCCCN1CCOCC1)c1cccnc1,inactive: 1.01
8,COc1ccc(S(=O)(=O)N(C)C[C@H]2Oc3ccc(N(C)C)cc3C(=O)N([C@H](C)CO)C[C@@H]2C)cc1,inactive: 1.05
9,COc1ccc(S(=O)(=O)N(C)C[C@@H]2Oc3ncc(-c4ccncc4)cc3C(=O)N([C@H](C)CO)C[C@H]2C)cc1,inactive: 0.999
10,COCC(=O)Nc1ccc2c(c1)OC[C@@H](C)N(C(=O)Cc1ccccn1)C[C@@H](C)[C@@H](OC)CN(C)C2=O,inactive: 1.03
11,COc1ccc(S(=O)(=O)Nc2ccc3c(c2)C(=O)N([C@H](C)CO)C[C@@H](C)[C@H](CN(C)C(=O)CCC(F)(F)F)OCCCC[C@@H](C)O3)cc1,inactive: 0.959
12,COc1cccc(NC(=O)N2C[C@H](O)COC[C@H]3O[C@@H](CC(=O)NCc4ccccc4F)CC[C@@H]32)c1,inactive: 1
13,Cc1nn(C)cc1NC(=O)C[C@H]1CC[C@H]2[C@H](COc3ccc(NC(=O)C4CCOCC4)cc3C(=O)N2C)O1,inactive: 0.978
14,C[C@@H]1CCCCO[C@@H](CN(C)C(=O)C2CCCCC2)[C@H](C)CN([C@H](C)CO)C(=O)c2cc(NC(=O)Nc3ccc(C(F)(F)F)cc3)ccc2O1,inactive: 1.01
15,CCC(=O)NO,inactive: 1.02
16,C[C@@H]1CN([C@@H](C)CO)C(=O)c2cc(NC(=O)Nc3ccc(F)cc3)ccc2O[C@H]1CN(C)Cc1ccc(Cl)c(Cl)c1,inactive: 0.99
17,Cc1noc(C)c1S(=O)(=O)N(C)C[C@H]1OCCCC[C@@H](C)Oc2ccc(NC(=O)Nc3ccccc3)cc2C(=O)N([C@@H](C)CO)C[C@H]1C,inactive: 1.02
18,C[C@H]1CN([C@@H](C)CO)S(=O)(=O)c2ccc(C#CCN(C)C)cc2O[C@H]1CN(C)S(=O)(=O)c1cccc(F)c1,inactive: 1.03
19,Cc1ccc(S(=O)(=O)N(C)C[C@@H]2Oc3ccc(NC(=O)CCN4CCOCC4)cc3CC(=O)N([C@@H](C)CO)C[C@@H]2C)cc1,inactive: 1.01
